From patent US20100285487A1 (LUDWIG MAXIMILIANS UNIVERSITAT MUNCHEN, published 2010) come the findings set out here.

This test addresses T1, XRCC1-LacI-RFP (UniProt P18887; P03023 1-360).
T1 construct: also called XRCC1-LacI-RFP bait construct
The test is described as follows: F2H assay, BHK cells. As for the experimental part: The lac repressor part of the XRCC1-LacI-RFP fusion protein mediates binding to the lac operator array (visible by fluorescence microscopy as red spot). DNA Ligase III is recruited to the lac operator array through interaction with XRCC1. […] Scale bars 5 μm. (b) Comparison of F2H results and co-immunoprecipitation (Co-IP) experiments. Co-IPs were performed with HEK 293T cells co-expressing RFP-XRCC1 and GFP-Ligase III or GFP-Ligase I, respectively. For interaction mapping the GFP-tagged BRCT domain of DNA Ligase III and a deletion construct lacking the BRCT domain were used. Immunoprecipitations were performed with a GFP-nanotrap (Rothbauer et al., 2007) (as shown before (Mortusewicz et al., 2006)). Precipitated fusion proteins were then detected with specific antibodies against RFP and GFP on western blots. RFP-XRCC1 was co-precipitated with GFP-Ligase III but not with GFP-Ligase I. RFP-XRCC1 was also co-precipitated with GFP-Ligase III BRCT but not with GFP-N-Ligase III ΔBRCT. For comparison of F2H results the input (left) and bound (right) bands from Co-IPs were aligned with corresponding signals from the F2H assay. […]
To test the F2H assay, the previously described interaction between the two DNA repair proteins DNA Ligase III and XRCC1 (Caldecott et al., 1994; Wei et al., 1995) was analyzed and the results were compared with data obtained from pull down assays. […]

XRCC1-LacI-RFP, sequence (P18887 other isoform, or with tags, fused parts or gaps limits assumed): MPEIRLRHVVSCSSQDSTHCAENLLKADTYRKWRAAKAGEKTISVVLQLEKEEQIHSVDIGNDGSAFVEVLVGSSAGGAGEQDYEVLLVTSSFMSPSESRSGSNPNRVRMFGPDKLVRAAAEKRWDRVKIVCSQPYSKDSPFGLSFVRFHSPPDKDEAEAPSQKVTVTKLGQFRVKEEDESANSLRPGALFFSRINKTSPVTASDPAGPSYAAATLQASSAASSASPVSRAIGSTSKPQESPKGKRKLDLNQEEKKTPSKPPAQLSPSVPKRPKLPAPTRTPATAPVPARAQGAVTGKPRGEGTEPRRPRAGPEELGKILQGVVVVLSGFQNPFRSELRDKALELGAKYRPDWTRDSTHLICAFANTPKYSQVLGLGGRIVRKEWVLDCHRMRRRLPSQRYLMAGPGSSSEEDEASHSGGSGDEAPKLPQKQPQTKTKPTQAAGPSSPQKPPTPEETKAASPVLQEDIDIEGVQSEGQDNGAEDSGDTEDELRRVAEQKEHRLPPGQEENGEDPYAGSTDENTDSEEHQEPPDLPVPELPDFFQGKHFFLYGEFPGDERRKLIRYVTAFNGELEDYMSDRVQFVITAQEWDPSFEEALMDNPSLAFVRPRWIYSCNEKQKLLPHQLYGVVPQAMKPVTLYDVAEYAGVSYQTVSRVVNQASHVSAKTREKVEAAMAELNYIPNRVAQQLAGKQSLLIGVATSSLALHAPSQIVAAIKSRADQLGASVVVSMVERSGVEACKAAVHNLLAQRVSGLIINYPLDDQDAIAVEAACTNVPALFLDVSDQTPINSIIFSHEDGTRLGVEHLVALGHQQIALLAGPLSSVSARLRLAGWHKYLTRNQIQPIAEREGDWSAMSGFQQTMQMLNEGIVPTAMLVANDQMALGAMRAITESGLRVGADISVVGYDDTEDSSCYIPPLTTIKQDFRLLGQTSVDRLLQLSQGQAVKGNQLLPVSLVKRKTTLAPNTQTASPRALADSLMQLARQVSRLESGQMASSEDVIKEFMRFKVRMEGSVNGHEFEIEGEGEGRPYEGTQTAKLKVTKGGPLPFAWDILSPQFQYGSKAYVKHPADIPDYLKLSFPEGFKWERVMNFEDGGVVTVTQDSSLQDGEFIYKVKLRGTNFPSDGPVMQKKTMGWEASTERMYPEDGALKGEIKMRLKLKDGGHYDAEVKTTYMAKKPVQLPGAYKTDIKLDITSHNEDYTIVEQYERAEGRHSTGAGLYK

B1: GFP-tagged DNA Ligase I (other, not shown: large carriers; small tags and cut ends)
chain: [gap - about 250 residues]PSGYNPAKNNYHPVEDACWKPGQKVPYLAVARTFEKIEEVSARLRMVETLSNLLRSVVALSPPDLLPVLYLSLNHLGPPQQGLELGVGDGVLLKAVAQATGRQLESVRAEAAEKGDVGLVAENSRSTQRLMLPPPPLTASGVFSKFRDIARLTGSASTAKKIDIIKGLFVACRHSEARFIARSLSGRLRLGLAEQSVLAALSQAVSLTPPGQEFPPAMVDAGKGKTAEARKTWLEEQGMILKQTFCEVPDLDRIIPVLLEHGLERLPEHCKLSPGIPLKPMLAHPTRGISEVLKRFEEAAFTCEYKYDGQRAQIHALEGGEVKIFSRNQEDNTGKYPDIISRIPKIKLPSVTSFILDTEAVAWDREKKQIQPFQVLTTRKRKEVDASEIQVQVCLYAFDLIYLNGESLVREPLSRRRQLLRENFVETEGEFVFATSLDTKDIEQIAEFLEQSVKDSCEGLMVKTLDVDATYEIAKRSHNWLKLKKDYLDGVGDTLDLVVIGAYLGRGKRAGRYGGFLLASYDEDSEELQAICKLGTGFSDEELEEHHQSLKALVLPSPRPYVRIDGAVIPDHWLDPSAVWEVKCADLSLSPIYPAARGLVDSDKGISLRFPRFIRVREDKQPEQATTSAQVACLYRKQSQIQNQQGEDSGSDPEDTY
notes: also called GFP-Ligase I
In the case of B1, the binding result is recorded as “no binding”.
